# From article PMC12136788
# This is one part of the list.
# B1: chr7:7679991:7679992:-_ENSG00000106399_ENST00000396682|hu_hu|hu_hu_hu_mus_False|58_98 (ssRNA)
# RNA: GGGAGUUCUACAGUCCGACGAUCUGGGAUGAAUCUUUUCCAGCCUCCCCACGAAGCACACGGGCCGGUCGAUAUACUGAGCUAGCAUGCUGGCGUUGACGCGCGCUUUGGGGAGCUGCAUUAUGUCCUCCAUGAUUCUGCCGCCAACAGAGGAUUGAGCAUCA
# B2: 102313770_102313890_7086_3pUTR_ENSG00000166135_ENST00000299163|human|control|control (ssRNA)
# RNA: GGGAGUUCUACAGUCCGACGAUCUGGCUGCCCAGGCAGAAGAGGCAUAAGACACUUCCUGUUUCUCUUCCUCUAGGGUGAGUUUAGGUACUAGACUCUUCUGUCUACCCUCAACUCAAUAUGGUUUAUCUAAGGUGUUUCUCGCAACAGAGGAUUGAGCAUCA
# B3: chr8:42798479:42798480:+_ENSG00000168172_ENST00000307602|hu_mus|motif|central (ssRNA)
# RNA: GGGAGUUCUACAGUCCGACGAUCCGAAUGCUCCCCAAUGAGGUUCACGUCAGGAAGGGUGAAAUCAUUAAUCUGCUGUCCGGAAAUCUCAUGAUUGUAAUCCAAGAUGCCUUUUAAAAUUUUCUUUAAAUUGCUGAUCUUUAACAACAGAGGAUUGAGCAUCA
# B4: chr1:84754351:84754352:-_ENSMUSG00000026219_ENSMUST00000027421|mus_mus|motif|central (ssRNA)
# RNA: GGGAGUUCUACAGUCCGACGAUCAGCAUGAUUUUUCAGAACAUCCUUCAGAAGUUCAGCAUCAGCAAAAUAAAUUAUCCGGAGAAUUGCUCUAAGGCACUUGUGUCUGACCGCAGGGCCUGCUGAGGAGCUGUACACUUCAUACAACAGAGGAUUGAGCAUCA
# B5: chr6:72301320:72301321:+_ENSMUSG00000058706_ENSMUST00000077783|mus_hu|motif|central (ssRNA)
# RNA: GGGAGUUCUACAGUCCGACGAUCUAGCCAGGACGGUCUGGAUCUCCUGAUUUCAUGAUCCGCCCGCCUCGGCCUCCCGGCCUCUUCCUUUACUUAAUAAGAAUGCGGUCUAAAUUUUCAGGUGCCAAGCCCCCAAACUCCUCUCAACAGAGGAUUGAGCAUCA
# B6: chr2:152658766:152658767:-_ENSG00000162980_ENST00000295087|hu_hu|motif|central (ssRNA)
# RNA: GGGAGUUCUACAGUCCGACGAUCACUCUGAAAUUCACUUUAACUGCUUGACAUAUAAUUUAAUACUUAAAAAUAAUAUAGCGGAGUUGUUUAAUAGUAUUUAUAGAAUGCUACUUUUCUGGGUAGACAUGUUUCACAAAACAGCAACAGAGGAUUGAGCAUCA
# B7: chr10:17279241:17279242:+_ENSG00000026025_ENST00000224237|hu_hu|FALSE|FALSE (ssRNA)
# RNA: GGGAGUUCUACAGUCCGACGAUCUUUUUAUUCAAGGUCAUCGUGAUGCUGAGAAGUUUCGUUGAUAACCUGUCCAUCUCUAGUUUCAACCGUCUUAAUCAGAAGUGUCCUUUUUGAGUGGGUAUCAACCAGAGGGAGUGAAUCCAACAGAGGAUUGAGCAUCA
# B8: chr4:115894766:115894767:+_ENSMUSG00000028698_ENSMUST00000030464|mus_hu|mus_mus_mus_hu_True|1_68 (ssRNA)
# RNA: GGGAGUUCUACAGUCCGACGAUCUUCCACACGGAAAUGUACUUCGGGUUUUCCAACGGCCAGUACCGUCCAGCCAAAACUACCCGAACAGGGUCCUCCCCCUCUCUCCUACAGAACACAACAAAAUGCCCCCGAACCCCGAACCAACAGAGGAUUGAGCAUCA
# B9: chr4:107939044:107939045:-_ENSMUSG00000034636_ENSMUST00000043616|mus_hu|FALSE|FALSE (ssRNA)
# RNA: GGGAGUUCUACAGUCCGACGAUCACUGAUAAUGUCUGUAAUCGUGAUAUCAGCAUUCACACCUGUGGCAUCAAGUUCCACUAACUUGUGGUGGCAGAAAGCUUUCCGGAAAGCAACAGCAGAGAUCUUUGCUUUGCGAAUGCACAACAGAGGAUUGAGCAUCA
# B10: chr3:119450855:119450856:-_ENSMUSG00000028134_ENSMUST00000029780|mus_hu|mus_mus_mus_hu_False|8_98 (ssRNA)
# RNA: GGGAGUUCUACAGUCCGACGAUCUGUGGUGCCACUAAGAGGUGUAUUUGCUGUCUGGACAGCUGUCACAGCUUGAAGAACUGCCUGAGCACGUUGGUUUAAUGUAUUAUCUGUCUUUAGUUCUUUGUGAUUGGAGUACUGGAUCAACAGAGGAUUGAGCAUCA
# B11: chr1:163117127:163117128:-_ENSG00000143248_ENST00000313961|hu_mus|hu_hu_hu_mus_False|18_88 (ssRNA)
# RNA: GGGAGUUCUACAGUCCGACGAUCUGCUACAAAGGAUGUAACUCAACACUCACAGGAACUUUUGGAAGCCUGACCAGAUGACUACUUGAUUAGCUCCUUAUAAAAUUCAGAGCGCACAAAGCGAGGCAGAGAAUCCUUCUCCAUCAACAGAGGAUUGAGCAUCA
# B12: chr6:160170297:160170298:+_ENSG00000146457_ENST00000337387|hu_mus|FALSE|FALSE (ssRNA)
# RNA: GGGAGUUCUACAGUCCGACGAUCUCACACCAACGACAAUGCUGUUUAACAUGUGCCUGCUGAAUGAGAUGAGGGUUUACUGAAUAAUGGGAGUCUCAUCACAGCCAAAUACCAUAUACAAUCUAGUUGUGAAAUGAAUGCUUACAACAGAGGAUUGAGCAUCA
# B13: chrX:77155053:77155054:+_ENSG00000131174_ENST00000481445|hu_hu|FALSE|FALSE (ssRNA)
# RNA: GGGAGUUCUACAGUCCGACGAUCCGAACUUGGAGACGAUUUAGUGCGCUUUUGACCAAGGGAAACAUCGUGAAGGUGAAGCUAGAACUGCGGCAAUACAGCUGCUGCUUUGGUGCCAAUUCGCUUCAGGUACCCUUGAAGUGACAACAGAGGAUUGAGCAUCA
# B14: chr2:47635579:47635580:+_ENSG00000095002_ENST00000543555|hu_mus|FALSE|FALSE (ssRNA)
# RNA: GGGAGUUCUACAGUCCGACGAUCAACUCGAUACUGGCGAACCAGAAGAAGAUCUUUCACGAAAGACUCAAAGUUCAUCUUGCUAAGCACAACACUCUGCAGGGUCUUACUCCCUGCCGGCCCCAUGUACUUGAUCACGCCCUGCAACAGAGGAUUGAGCAUCA
# Biological target: T1, UNK ZnF1-3 (human, UniProt Q9C0B0 31-174)
# T1 sequence: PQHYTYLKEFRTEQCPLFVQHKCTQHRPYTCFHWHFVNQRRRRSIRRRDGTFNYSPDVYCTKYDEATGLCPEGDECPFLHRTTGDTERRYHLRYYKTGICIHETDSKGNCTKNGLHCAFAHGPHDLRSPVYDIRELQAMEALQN
# Test: nsRBNS (natural sequence RNA bind-n-seq); RBNS binding buffer (assumed for nsRBNS): 25 mM Tris pH 7.5, 150 mM KCl, 3 mM MgCl2, 0.01% Triton X-100, 500 ug/ml BSA, 20 U/ml SUPERase-In, 4 C; UNK is unkempt and MSI1 is Musashi-1; names of the RNAs are library labels; protein concentration not given here; high values mean tight binding
row,Binder,binding signal [enrichment R]
1,B1,0.545
2,B2,0.594
3,B3,1.17
4,B4,2.6
5,B5,0.712
6,B6,2.19
7,B7,0.661
8,B8,1.11
9,B9,1.11
10,B10,0.821
11,B11,1.15
12,B12,1.05
13,B13,0.752
14,B14,0.922
